Measurements from the supplement of paper PMC3334620.
Over roughly 33,000 sequences, “E-score (-0.5 to 0.5)” has its median near -0.011; the highest 2% begin near 0.28. Some of the results follow.

biological target: T1, Gcr1 (UniProt P07261); test: PBM E-score (8-mer binding enrichment) (E-score (-0.5 to 0.5)); higher = stronger / more preferred TF binding; most listed sequences are background and not binding sites; conditions: protein concentration: 100 nM; construct: GST-full length
T1 sequence: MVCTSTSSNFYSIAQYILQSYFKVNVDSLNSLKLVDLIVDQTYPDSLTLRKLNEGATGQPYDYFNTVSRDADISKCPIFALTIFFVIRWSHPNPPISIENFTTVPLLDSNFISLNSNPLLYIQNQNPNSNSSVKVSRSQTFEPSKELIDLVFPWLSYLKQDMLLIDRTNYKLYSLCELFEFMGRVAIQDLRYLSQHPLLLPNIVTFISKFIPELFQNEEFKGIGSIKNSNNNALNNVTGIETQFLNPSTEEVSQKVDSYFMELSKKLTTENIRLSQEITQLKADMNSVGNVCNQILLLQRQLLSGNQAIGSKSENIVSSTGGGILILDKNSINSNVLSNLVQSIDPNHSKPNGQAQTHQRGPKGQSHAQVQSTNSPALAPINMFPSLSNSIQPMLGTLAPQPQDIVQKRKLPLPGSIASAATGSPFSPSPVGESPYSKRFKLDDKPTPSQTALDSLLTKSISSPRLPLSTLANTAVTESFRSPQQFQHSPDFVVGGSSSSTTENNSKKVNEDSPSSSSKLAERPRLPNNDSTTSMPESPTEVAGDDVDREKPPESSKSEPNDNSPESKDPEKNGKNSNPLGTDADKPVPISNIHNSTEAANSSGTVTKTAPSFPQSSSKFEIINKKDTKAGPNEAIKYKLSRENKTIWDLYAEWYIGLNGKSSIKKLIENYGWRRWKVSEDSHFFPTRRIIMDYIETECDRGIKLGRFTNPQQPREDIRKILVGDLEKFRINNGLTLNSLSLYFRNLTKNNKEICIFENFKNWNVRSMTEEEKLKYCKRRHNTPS
In short: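 For each ungapped eight-base word taken together with its reverse complement, the Universal PBM Analysis Suite assigned an E-score. Binding data came from GST-tagged yeast transcription factors, applied at about 100-200 nM, on universal all-10-mer Agilent arrays made double-stranded by primer extension. Fluorescent anti-GST marked bound protein, and scans were normalised with masliner.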

| Sequence | PBM E-score |
| --- | --- |
| CCGATCTC | -0.243 |
| AGCTGATC | 0.139 |
| GCGATTCA | -0.0634 |
| CTCTCGAC | -0.229 |
| ACGCTCAG | 0.117 |
| GCAGGGCA | -0.139 |
| AAAACATG | 0.0161 |
| CAGTTACA | 0.117 |
| GCCCTCTA | 0.0535 |
| AGCATAAT | -0.00272 |
| ATTGGTCA | -0.0559 |
| AGGAGCGA | -0.201 |
| ATCCGGCA | 0.114 |
| ATGACTAG | -0.0753 |
| AATTAGAC | 0.222 |
| CTCTTGAA | -0.0508 |
| CACTGTGA | -0.0508 |
| AGATATCG | -0.161 |
| AGGGACCG | -0.0809 |
| CGACGGGA | 0.0384 |
| AGTAGTAA | 0.0445 |
| TCAACGGA | 0.0865 |
| CAACGATC | -0.269 |
| TAGTGGCA | 0.289 |
| AAAGGCAG | 0.071 |

| Sequence | PBM E-score |
| --- | --- |
| AGTCGAGA | -0.208 |
| ATCATCGA | -0.0322 |
| ATAGAACG | -0.0396 |
| TACGCAAA | -0.134 |
| CACGATAA | 0.248 |
| CATGCCGC | -0.0918 |
| CGTTCATA | -0.0211 |
| CAACCTGA | 0.0194 |
| GATCGCGC | -0.153 |
| TCCCTAGA | -0.0166 |
| AAGAGGCT | 0.145 |
| ACATCTTC | 0.114 |
| GGTCGGCA | -0.00498 |
| AACAAGGA | 0.147 |
| CCTGGGCG | -0.233 |
| GGAGCTCC | 0.0925 |
| ATTTATCG | 0.0757 |
| CGAGTGCC | -0.132 |
| ACCTGGCC | -0.079 |
| CATATACG | 0.0883 |
| ACGGAAAC | 0.159 |
| ACCGTTAA | -0.119 |
| GAGTTTGA | 0.0102 |
| TGAAATCA | -0.0173 |
| CCGGGTCA | -0.186 |

| Sequence | PBM E-score |
| --- | --- |
| CACATTTA | -0.00463 |
| CAGAAAGA | 0.00303 |
| CCTAGCTA | 0.0429 |
| CCTACCAG | -0.108 |
| GCATACTA | -0.0175 |
| CGACTAAC | 0.135 |
| GAACCCCA | 0.344 |
| CGTTTGGC | 0.0404 |
| ATGGCCGC | -0.0786 |
| AGGTTGTG | -0.121 |
| CACGTAGA | 0.222 |
| CCCATTCA | -0.0426 |
| ACTTGAAA | 0.0693 |
| ATACAACC | 0.0589 |
| ACCGATGA | -0.176 |
| GGGCAAGA | -0.0914 |
| ACTCAGCG | 0.00766 |
| CTCGCATC | 0.0801 |
| ATGACCTC | 0.0136 |
| AATGGTCT | -0.142 |
| AGCATGAA | -0.0935 |
| ACTATGCG | 0.0747 |
| GCGTACAA | -0.0517 |
| CACGGCTC | 0.0065 |
| CATGTACA | -0.129 |

| Sequence | PBM E-score |
| --- | --- |
| CCGTTTAC | 0.011 |
| CTTCAGAC | -0.187 |
| CTATGTTA | 0.204 |
| GATTAGAA | 0.159 |
| ATTACTCC | 0.077 |
| AAGATTGT | -0.0427 |
| AAGATTTG | 0.0731 |
| CAACGTCC | -0.0412 |
| GATGATGA | 0.019 |
| GTAGCCAC | 0.147 |
| AATTGGCG | 0.162 |
| CCGTGACG | -0.165 |
| AACTGCGC | -0.0421 |
| AGGGGAAA | 0.0362 |
| CGCACTTC | 0.0702 |
| AAATTACA | 0.0399 |
| CTTATATA | 0.0537 |
| GCGGCTTA | 0.139 |
| GTCAAATA | 0.0424 |
| CCTCGTTA | 0.0311 |
| CTATTTGC | -0.0505 |
| GAGTAGGA | -0.0144 |
| CAACTAGA | 0.106 |
| AAGATATC | -0.155 |
| CAAGCACC | 0.139 |

| Sequence | PBM E-score |
| --- | --- |
| CTTACCTA | -0.194 |
| GACTCGAC | -0.0543 |
| CTCCAAAA | 0.0323 |
| CGGCTATA | -0.0012 |
| AACCCCTT | 0.142 |
| TCGATTAA | 0.0733 |
| AGTGCGCC | -0.0405 |
| CTTTCAGC | -0.00015 |
| GCCGAGAA | 0.246 |
| AGTTTCTA | 0.0364 |
| GGTCTAAC | -0.2 |
| CTAGCGCC | 0.0934 |
| GCCTGGTA | -0.0802 |
| ACCACACG | 0.00077 |
| CATGGAGG | -0.294 |
| GTAGAGAC | -0.173 |
| AACCAACT | 0.0546 |
| CACTACCA | -0.0446 |
| AAGTGTGC | -0.187 |
| GCTGTTAC | -0.0893 |
| CAGCGTGG | -0.133 |
| CCTTTTGA | 0.0317 |
| ACGCATCC | 0.311 |
| ATTTGGTC | 0.134 |
| ACATAACC | -0.183 |

| Sequence | PBM E-score |
| --- | --- |
| CCACGTGG | -0.0825 |
| ACCCACGC | 0.00745 |
| CACCTTGA | -0.0636 |
| TTCGAGAA | 0.0625 |
| GGCGGCTA | 0.0757 |
| CCTCGCCA | -0.0884 |
| AGATCCTA | 0.158 |
| AGACGCAC | 0.115 |
| GTGGTCGA | -0.0539 |
| CCGTAAGC | -0.00669 |
| ACAAATCC | -0.0939 |
| AACACGGG | -0.00664 |
| GGGTCATA | -0.257 |
| ATCCAAGC | -0.159 |
| CATCTACA | -0.0674 |
| AAGCAAGT | -0.23 |
| CCCACTAC | 0.187 |
| ATAGACTA | -0.0574 |
| GCATCAAA | -0.0446 |
| AAGACTAC | -0.0723 |
| CCACGTGC | -0.0929 |
| GACTGGCC | -0.151 |
| ACACTCAC | -0.209 |
| ACTCTTAA | -0.0551 |
| ACTCATGC | 0.00533 |

| Sequence | PBM E-score |
| --- | --- |
| TAACGGCA | 0.0911 |
| AACCTGCG | -0.0911 |
| CCGAGTCG | -0.238 |
| AAGTGGTG | 0.281 |
| CAGCCAAA | 0.154 |
| CGCTTTCC | -0.0681 |
| AAATTGAG | 0.163 |
| ATTAGCGG | 0.128 |
| CGTTTAGC | -0.142 |
| CTAGGTTA | -0.0773 |
| GAGTACAC | -0.0685 |
| GTGGAAAC | 0.0791 |
| CATAAACA | 0.0805 |
| ACAGGTCT | -0.122 |
| AGCTAATA | 0.0193 |
| CATCGGAA | 0.0772 |
| AATGCACA | -0.117 |
| ATAACCGC | -0.119 |
| ATCAGGCG | 0.0128 |
| AACCCTTG | -0.221 |
| GAGGTAGA | -0.303 |
| CTTTAGTC | 0.0272 |
